# Experimental data: PubChem BioAssay AID485360 (National Center for Advancing Translational Sciences (NCATS), 2010)
# Hit rate of the full screen: of about 230,000 compounds, about 1,500 (0.65%) were called active. This list was built around the results that the source calls inconclusive (neither active nor inactive); the mix of calls is not that of the screen. The call rests on the fitted dose curve; in most records, active means well fitted inhibition curve with a large enough effect; inconclusive means small, poorly fitted or top-dose-only effect; inactive means no such curve, though single readings can be large or run the other way. Where the call is inconclusive, the potency comes from a doubtful curve fit.
# Target: Lethal(3)malignant brain tumor-like protein 1 (Homo sapiens) (UniProt Q9Y468)
# Assay: qHTS Assay for the Inhibitors of L3MBTL1; further: nearly all actives have a fitted effect of over 60% in size
# Conditions: AlphaScreen L3MBTL1–H3K9me1 peptide binding; activity, negative = inhibition: at 57.1 µM (top of the series)
# How it was run: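 AlphaScreen assay: L3MBTL1 (50 nM final) was preincubated 30 min at room temperature with biotinylated H3(1-15)K9me1 peptide (75 nM final), then 30 min with library compounds; streptavidin donor and nickel chelate acceptor beads (10 ug/mL final) added, 30 min dark.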
# On the % scale 0 is the no-effect control and ±100 the full control effect; potency means the concentration at half of the fitted maximal effect; tags describe the fitted curve by direction and shape.
Structure (SMILES),Potency,"activity, negative = inhibition"
COC(=O)C1=C(C)N=c2s/c(=C3\C(=O)Nc4ccccc43)c(=O)n2C1c1ccccc1 (stereo not given),"inconclusive: 3.16 µM [inhibitor, single point]",
COC(=O)C1=C(C)Nc2ncnn2C1c1ccccn1 (stereo not given),"inconclusive: 2.24 µM [inhibitor, single point]",
COc1cccc(NC(=O)CN2C(=O)NC(C)(CCC(C)C)C2=O)c1 (stereo not given),"inconclusive: 10 µM [inhibitor, partial curve]",
CC(C)c1ccc2oc(-c3ccc(NC(=O)c4ncn[nH]4)cc3)nc2c1,"inconclusive: 28.2 µM [inhibitor, single point]",
COc1ccc(NCC(=O)N/N=C(\C)c2cc3ccccc3o2)cc1,"inconclusive: 39.8 µM [inhibitor, partial curve]",
CCOc1ccc(C(=O)N2CCN(Cc3ccccc3)CC2)cc1,,inactive: 3.93%
COc1cc(-c2nnc(-c3cc(OC)c(OC)c(OC)c3)o2)cc(OC)c1OC,"inconclusive: 6.31 µM [inhibitor, single point]",
O=C(COC(=O)c1nc(Cl)c(Cl)c(Cl)c1Cl)NCc1ccccc1,,inactive: -7.71%
O=C(Cn1cnc([N+](=O)[O-])c1)c1ccc(Cl)cc1,"inconclusive: 6.31 µM [inhibitor, single point]",
O=C(/C=C/c1ccc(O)c(O)c1)O[C@@H]1C[C@](O)(C(=O)O)C[C@@H](O)[C@H]1O,inactive,
CS(=O)(=O)C1=NSC2=NC(=O)/C(=C\c3ccc(-c4ccccc4)o3)C(=N)N21,,inactive: -0.0926%
COCCCNCCOc1ccccc1-c1ccccc1,"inconclusive: 0.708 µM [inhibitor, single point]",
O=C1Cc2ccccc2Sc2cc(OCCCN3CCCCC3)ccc21,"inconclusive: 0.794 µM [inhibitor, single point]",
CCOC(=O)c1c(NC(C)=O)sc2c1CCN(Cc1ccccc1)C2,,inactive: 0%
CCN(CC)c1ccc(/C=N/Nc2nc3ccccc3[nH]2)cc1,"inconclusive: 28.2 µM [inhibitor, partial curve]",
CCCn1c(=O)[nH]c(=O)c2c(C(=O)OCC)cc(-c3cccs3)nc21,,inactive: 9.56%
COc1cc(/C=C/C(=O)OCC(=O)Nc2ccc(S(N)(=O)=O)cc2)ccc1O,"inconclusive: 31.6 µM [inhibitor, single point]",
COc1cccc(CC2(CO)CCCN(Cc3ccc(-c4ccco4)cc3)C2)c1 (stereo not given),"inconclusive: 17.8 µM [inhibitor, partial curve]",
CCOC(=O)C1CCCN(C(=O)c2cc(-c3ccncc3)nc3ccccc23)C1 (stereo not given),,inactive: 0.931%
CCc1ccccc1N1CCN(S(=O)(=O)c2cc(OC)ccc2OC)CC1,"inconclusive: 0.708 µM [inhibitor, single point]",
CCOC(=O)CSc1nc2sc(C)c(C)c2c(=O)[nH]1,"inconclusive: 0.891 µM [inhibitor, full curve, poor fit]",
Cc1cc(C(=O)COC(=O)c2ccc(Br)o2)c(C)n1C,"inconclusive: 25.1 µM [inhibitor, partial curve]",
CCOc1cc(C2C(C#N)=C(N)OC(C)=C2C(C)=O)cc(Br)c1O (stereo not given),,inactive: -5.32% [at 11.4 µM]

Structure (SMILES),Potency,"activity, negative = inhibition"
COc1ccc(S(=O)(=O)N2CCSCC2)cc1,"inconclusive: 3.98 µM [inhibitor, single point]",
CCC(=O)NC(c1ccc(C)cc1)c1ccc2cccnc2c1O (stereo not given),,inconclusive: -45.6% [inhibitor]
CCC(Oc1ccccc1)C(=O)NC1CCSC1=O (stereo not given),,inactive: -0.0738%
CCOC(=O)Cc1csc(NC(=O)c2sc3nc4ccc(CC)cc4cc3c2N)n1,"inconclusive: 20 µM [inhibitor, partial curve]",
C=CCSc1nnc(-c2cccc3ccccc23)o1,active: 7.94 µM,
O=[N+]([O-])c1ccccc1N/N=C/c1c[nH]c2ccccc12,"inconclusive: 28.2 µM [inhibitor, partial curve]",
CCOC(=O)c1sc2nc3c(SCCC(=O)O)cc(C(=O)c4cc(OC)ccc4O)cn3c(=O)c2c1C,"inconclusive: 7.08 µM [inhibitor, single point]",
CN(C)CCCNc1cc(O)c2ncccc2c1,"inconclusive: 31.6 µM [inhibitor, single point]",
Cc1ccsc1/C=N/NS(=O)(=O)c1ccc([N+](=O)[O-])cc1,"inconclusive: 0.708 µM [inhibitor, single point]",
Cc1ccc(C)c(NS(=O)(=O)c2ccc3[nH]c(=O)oc3c2)c1,active: 31.6 µM,
Cc1ccc(C)c(CSc2nc(-c3ccco3)nc3c2c(=O)n(C)c(=O)n3C)c1,"inconclusive: 0.794 µM [inhibitor, single point]",
CCOC(=O)c1cnc(-n2nc(C)cc2C)nc1NNc1nc(C)cc(C)n1,"inconclusive: 7.08 µM [inhibitor, full curve, poor fit]",
O=c1[nH][nH]c2cc(=O)n(-c3cccc(C(F)(F)F)c3)nc12,"inconclusive: 25.1 µM [inhibitor, single point]",
CCN(CC)c1ccc(NC(=O)c2ccc(Br)o2)cc1,"inconclusive: 17.8 µM [inhibitor, partial curve]",
O=S(=O)(NNc1ncc(C(F)(F)F)cc1Cl)c1ccccc1,,inactive: -7.14%
Cc1nn(C)c(C)c1S(=O)(=O)N(CC(=O)NCc1cccs1)c1ccc(C(C)C)cc1,"inconclusive: 5.01 µM [inhibitor, full curve]",
COc1ccccc1CNc1nc2nc(C)c(Cl)c(=O)n2[nH]1,,inactive: -3.09%
Cn1cc([N+](=O)[O-])c(C(=O)NCC(=O)O)n1,"inconclusive: 0.316 µM [inhibitor, full curve, poor fit]",
c1cncc(-c2nc(NCc3ccc4c(c3)OCO4)c3ccccc3n2)c1,,inactive: -11.5%
C/C(N)=C(/C#N)C(=O)CSc1nc2cc(Cl)ccc2c(=O)n1Cc1ccco1,"inconclusive: 15.8 µM [inhibitor, single point]",
COc1cccc(CN2c3ccc(Br)cc3C(=O)CS2(=O)=O)c1,,inactive: -12.8%
Cc1c(C(=O)Nc2ccc(S(=O)(=O)N(C)C3CCN(C)CC3)cc2)oc2ccccc12,"inconclusive: 25.1 µM [inhibitor, single point]",
